The whole screen tested about 420,000 compounds, of which about 50,000 (12%) were called active. Inconclusive means that the source gave no clear call. Such entries were picked first, then a sample of the others. Calls follow the shape of the dose curve; as a rule, active = well fitted inhibition curve with a large enough effect; inconclusive = small, poorly fitted or top-dose-only effect; inactive = flat fitted curve, though single readings scatter. No potency is given beside an inconclusive call; the fits are too rough.
Experiment: qHTS for Inhibitors of human tyrosyl-DNA phosphodiesterase 1 (TDP1): qHTS in cells in presence of CPT; also: nearly all actives have a fitted effect of over 55% in size
Conditions: chicken DT40 Tdp1-/-;hTDP1 cells + 20 nM CPT, ATP luminescence, 48 h; series mostly up to 46.2 µM
Summary of the method: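 Chicken DT40 Tdp1-/- cells stably complemented with human TDP1 were seeded at 400 cells/well in medium containing 20 nM camptothecin, exposed to pin-transferred compounds, and grown at 37 °C for at least 48 hr. Viability was read as ATP luminescence.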
Potency is read from the fitted curve at half-maximal effect; tags tell the direction and shape of the fitted curve.

Compound | Potency
CCOC(=O)C(=CNc1ccc(NC2=NCC(C)(C)S2)cc1)C(=O)OCC | active: 18.4 µM
CCN1C(=O)C(CC(=O)Nc2cccc(C(C)=O)c2)S/C1=N\c1ccccn1 (centres undefined) | inconclusive [inhibitor, partial curve]
CSCCC(NC(=O)c1ccc(Cl)cc1Cl)C(=O)N1CCN(C(=O)c2ccccc2)CC1 (centres undefined) | inconclusive [inhibitor, single point]
NNC(=O)c1cc(C23CC4CC(CC(C4)C2)C3)nc2ccccc12 | inactive
O=C1C(=Cc2cn(-c3ccccc3)nc2-c2ccc(OCc3ccccc3)cc2)SC(=S)N1CCS(=O)(=O)O | active: 29.1 µM
N=C1/C(=C\c2ccc(-c3cccc(C(=O)O)c3)o2)C(=O)N=C2SC=C(c3ccccc3)N12 | inconclusive [inhibitor, single point]
CCc1nn(CC(=O)NCCc2ccc(Cl)cc2)c(=O)c2cc3ccccc3n12 | inconclusive [inhibitor, single point]
Cc1cc(N2CCN(c3ccc(F)cc3)CC2)n2nc(-c3ccc(Cl)cc3)nc2n1 | inactive
COc1cccc(/C=N/Nc2nnc(C)n2N)c1O | inconclusive [inhibitor, single point]
CCOC(=O)c1[nH]c(C)c(CCC(=O)Nc2ccccc2C(=O)OC)c1C | active: 13 µM
O=C(Nc1ccc2nc3n(c(=O)c2c1)CCCCC3)c1cc([N+](=O)[O-])ccc1F | active: 6.51 µM
CC1CCc2[nH]c3ccc(C(=O)N(C)CC(=O)Nc4ccccc4Br)cc3c2C1 (centres undefined) | inconclusive [inhibitor, single point]
O=C(NCCc1nc2ccc(Cl)cc2[nH]1)C1CCC(=O)N(Cc2cccc(F)c2)C1 (centres undefined) | inactive
Cc1ccc(Cl)cc1N1CCN(c2cccc[n+]2C)CC1 | inconclusive [inhibitor, partial curve]
CCOc1ccc(S(=O)(=O)/N=C(/Nc2ccc(C(C)=O)cc2)c2ccccc2)cc1 | active: 23.1 µM
Cc1ccc(NC(=O)c2nc[nH]c2C(=O)NCCCCCNC(=O)OC(C)(C)C)cc1 | inconclusive [inhibitor, single point]
Cc1sc2nnn(CC(=O)N3CCN(C(=O)c4ccco4)CC3)c(=O)c2c1C | inactive
CCC(C)(C)C1CCc2[nH]nc(C(=O)NCc3ccccn3)c2C1 (centres undefined) | active: 14.6 µM
C[C@@H]1CN([C@H](C)CO)C(=O)c2c(c3ccccc3n2C)-c2ccccc2CO[C@H]1CN(C)S(=O)(=O)c1cn(C)cn1 | inactive
CN(CCc1ccccc1)C(=O)c1ccc(NC(=O)Cc2cccc(NC(=O)C3CCN(C(=O)C4CCCC4)CC3)c2)cc1 | inconclusive [inhibitor, single point]
O=C(CSc1nc2ccccc2c(=O)[nH]1)Nc1ccccc1C(F)(F)F | inconclusive [inhibitor, single point]
Cc1oc2ncn(C)c(=O)c2c1C(=O)Nc1ccc(F)cc1 | inactive
CCc1nnc(NC(=O)CSc2nc3[nH]c(=O)cc(O)c3s2)s1 | active: 6.51 µM

Compound | Potency
Cc1nn(-c2ccccc2)c(C)c1NC(=O)COC(=O)c1cc([N+](=O)[O-])ccc1NCCO | inconclusive [inhibitor, single point]
CCOC(=O)c1ccccc1NC(=O)COC(=O)C1CCCC1 | inactive
CCN(CC)Cc1c(C(=O)N/N=C/c2ccc(OCc3ccccc3C)cc2)nnn1-c1nonc1N | inconclusive [inhibitor, single point]
CCc1ccc2oc(=O)cc(CN3CCN(Cc4ccccc4)CC3)c2c1 | inconclusive [inhibitor, single point]
Cc1cccc(N2CCN(C(=O)c3oc(=O)c4ccccc4c3-c3ccccc3)CC2C)c1 (centres undefined) | inconclusive [inhibitor, single point]
CCN(CC(=O)Nc1c(F)cccc1F)C(=O)c1ccc(COc2ccccc2)cc1 | inconclusive [inhibitor, single point]
CCNC(=S)N/N=C(\C)c1ccco1 | inconclusive [inhibitor, single point]
Cc1ccc(CNC(=O)c2ccc3c(c2)N(Cc2ccccc2Cl)C(=O)CS3)cc1 | inconclusive [inhibitor, partial curve, poor fit]
COc1ccc(C(=O)CN2Cc3ccccc3C2=N)cc1 | active: 16.4 µM
Cc1cccc(OCCCOc2cccc3cccnc23)c1C | inconclusive [inhibitor, single point]
CCOc1ccc2nc(N(Cc3cccnc3)C(=O)C3CCCCC3)sc2c1 | inconclusive [inhibitor, single point]
Cc1ccc(C2CCN(C(=O)Nc3ccc(Cl)c(Cl)c3)C2)cc1 (centres undefined) | inconclusive [inhibitor, single point]
CC(C)[C@H](NC(=O)OCc1ccccc1)C(=O)OCC(=O)NC1(C#N)CCCC1 | inactive
COc1ccc(C2=NOC(Cn3nc(-c4ccccc4)cc3C(=O)NCc3cccc(C(F)(F)F)c3)C2)cc1 (centres undefined) | inconclusive [inhibitor, partial curve, poor fit]
CCCCc1c(C)nc2ccccc2c1SCCC#N | inconclusive [inhibitor, single point]
COc1ccccc1NC(=O)CSc1nnnn1-c1ccc(C)cc1 | inconclusive [inhibitor, partial curve]
COc1ccc(Cn2c(CCC(=O)Nc3ccc(C)cc3C)nc3cccnc32)cc1 | inconclusive [inhibitor, single point]
COc1ccc2[nH]c(C)c(CCNC(=S)Nc3cc(C)ccc3C)c2c1 | active: 8.2 µM
CCOC(=O)CCNC(C)C1COc2ccccc2O1 (centres undefined) | inconclusive [inhibitor, single point]
CC1CN(C2CCN(C(=O)COc3ccc(Cl)cc3)CC2)CC(C)O1 (centres undefined) | inconclusive [inhibitor, partial curve]
CCOC(=O)C1=C(C)NC(SC)=C(C#N)C1CC(C)C (centres undefined) | active: 3.66 µM
CCc1cc(C(=O)NCC(c2ccco2)N2CCCCC2)sc1C (centres undefined) | inconclusive [inhibitor, single point]
CS(=O)(=O)c1ccc(N)c(SSc2cc(S(C)(=O)=O)ccc2N)c1 | inconclusive [inhibitor, single point]

Compound | Potency
NS(=O)(=O)c1ccc(NCc2cc(Cl)ccc2OCc2ccc(F)cc2)cc1 | inconclusive [inhibitor, single point]
Cc1cc(S(=O)(=O)Nc2nc(CN3CCOCC3)nc3sc4c(c23)CCC4)ccc1F | inconclusive [inhibitor, single point]
C=CCOc1cccc(/C=N/NC(=O)CN(c2cc(Cl)ccc2OC)S(=O)(=O)c2ccc(C)c([N+](=O)[O-])c2)c1 | inconclusive [inhibitor, single point]
Cc1ccc(N2C(=O)N(CC(=O)N3CCCc4ccccc43)C(=O)C2C)cc1 (centres undefined) | inconclusive [inhibitor, single point]
O=C1CCCCCCC(=O)[C@H](O)C[C@H](c2ccccc2)O1 | inactive
O=C1CC(N(Cc2ccco2)C(=O)Nc2ccc(F)cc2)C(=O)N1c1ccc(F)cc1 (centres undefined) | inactive
OC1(c2ccc(Cl)cc2)CCN(Cc2cn[nH]c2-c2ccccc2)CC1 | active: 16.4 µM
COc1cccc(CNC(=O)c2cccc(-n3c(C)nc4cccnc43)c2C)c1 | active: 20.6 µM
Cc1cnc(NC(=O)NCC2CCCC(CNC(=O)Nc3ncc(C)s3)C2)s1 (centres undefined) | inconclusive [inhibitor, single point]
CC(=O)Nc1cccc(/C(C)=N/N2C(C)CCCC2C)c1 (centres undefined) | inactive
COc1ccc(OC)c(C(=O)COC(=O)c2ccccc2O)c1 | inactive
COC(=O)c1c(NC(=O)c2nc3nc(C)cc(C(F)F)n3n2)sc2c1CCC2 | inconclusive [inhibitor, single point]
O=C1CC2(CCCC2)CC(=O)N1CCNCC1COc2ccccc2O1 (centres undefined) | inactive
COc1ccc(C2(C(=O)NCCc3ccccc3)CCCC2)cc1OC | inactive
COC(=O)[C@]1(C)N[C@H](c2ccc(SC3CCCCC3)cc2)[C@@H]2C(=O)N(C)C(=O)[C@@H]21 | inconclusive [inhibitor, single point]
O=S(=O)(c1ccc2c(c1)OCCO2)N1CCC(c2nc3ccc(Cl)cc3[nH]2)CC1 | active: 8.2 µM
Cc1ccsc1CN(C(=O)COc1ccc(Cl)cc1)C1CCS(=O)(=O)C1 (centres undefined) | inconclusive [inhibitor, single point]
O=C(CCn1c(=O)c2sccc2n(CC(=O)Nc2ccccc2)c1=O)NCc1ccccc1Cl | inconclusive [inhibitor, single point]
CC1CN(Cc2ccc(C#N)cc2Cl)CC(C)O1 (centres undefined) | inactive
O=C(CCNc1ccc(F)c(Cl)c1)c1ccco1 | active: 3.66 µM
O=C(c1cccs1)N(CCN1CCCCC1)CC1CCCN(C2CCCC2)C1 (centres undefined) | inconclusive [inhibitor, single point]
CCOC(=O)C1CCCN(C(=O)c2ccc(C)c(S(=O)(=O)N3CCCCC3)c2)C1 (centres undefined) | inconclusive [inhibitor, single point]
CCn1c(SCC(=O)NCc2ccco2)nc2c1c(=O)n(C)c(=O)n2C | inactive
